Measurements from the supplement of paper PMC11417369.
± gives the standard deviation of the averaged measurements. This is one part of the list.

test system: PfAP2-I AP2 domain 3 (GST-tagged); experiment: gcPBM binding intensity (ln(normalized median fluorescence intensity)); higher = stronger DNA binding
Summary of the method: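 An Agilent 4 × 180k array carrying primer-extended double-stranded 36-bp intergenic genomic probes and negative controls received GST-tagged P. falciparum DNA-binding domains expressed in E. coli, about 25 μg on average, for 1 h. The binding buffer contained 1× PBS, 1% milk, 0.2 mg/ml BSA, 0.5% salmon testes DNA and 0.03% Triton X-100. Binding intensity is the top Masliner-normalised natural-log median intensity across replicate spots of either probe orientation, read after Alexa488 anti-GST antibody staining and a 488 nm scan.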

| Sequence | gcPBM binding intensity (ln) |
| --- | --- |
| TTATAAAAATACAGTTAACACACATGTGTATATATA [CACACA_site9257] | 7.79 ± 0.47 |
| AAAATAATCTTATGCACACCAAAAATTTATATAATC [CACACA_site1235] | 9.32 ± 0.43 |
| TAATGCAACATTTATGTGCACATAAATATTTTTTAA | 9.815 ± 0.064 |
| AAAACACAATTTATTACACACATATATTATAGATTA [CACACA_site6780] | 7.61 ± 0.68 |
| TTTATTTTAAATTTACGTACATAATTAATCATATTT [XGTACX_site7529] | 7.87 ± 0.28 |
| ATAAAAAATTAGGACTGTACATAATTTTTGTGATTT [XGTACX_site2857] | 7.67 ± 0.52 |
| TATATATATAAGGATAGTACATATATTTATATGATT [XGTACX_site4954] | 8.9 ± 0.26 |
| GACTACACACAAGGGTGTACATATATATTATATATA [XGTACX_site2247] | 7.96 ± 0.33 |
| TTAACTTATTTGTAAAGTACATTAATAAAAAGAAAA [XGTACX_site1588] | 7.74 ± 0.49 |
| AGGTTATAATTGTTTTCACACATTTAAAAATGTTAT [CACACA_site5097] | 7.79 ± 0.64 |
| TTATATATTTCTATTGCACACTATATTTTATGAAGA [CACACA_site2910] | 10.2 ± 0.11 |
| ATGAAATTTATATCATGTACATACAAGAGAAAAAAA [XGTACX_site3326] | 7.89 ± 0.59 |
| AAAATTATAAAATGGGCACACATGAATATTGTAGTA [CACACA_site5261] | 7.8 ± 0.63 |
| GTATAATAAATGATAGCACACATATGTACTTATATA [CACACA_site8188] | 8.13 ± 0.35 |
| TGCTTCTTTTAAAAACATGTTTGTATTCATTTTATA [CACACA_negctrl_site1627] | 8.05 ± 0.74 |
| TTTTGGATGAACAGTACATGCAAAAACAAACTTGTA [TGCATGCA_site16] | 7.75 ± 0.74 |
| ATAATACCATTAATTTGTACATATATATTATATATA [XGTACX_site4345] | 7.87 ± 0.43 |
| ATTATATTATATATATGTACATATATATATCATAAT [XGTACX_site1] | 7.63 ± 0.49 |
| ACAAAAAGTTACATACGTACGTAAAATTGTAATAAA [XGTACX_site2358] | 7.84 ± 0.3 |
| GACAAATGAAAAGATTGTACATGTATTTGAAGATTA [XGTACX_site6775] | 7.63 ± 0.38 |
| TCTTTTATATTTTTTTGTACACAAGAATAAAGAAAA [XGTACX_site3394] | 8.18 ± 0.4 |
| TACACAAAAATTTATACACACACATATATAATATAT [CACACA_site7931] | 7.77 ± 0.34 |
| TGATTATATATAAATGTATGCATGTCTATTATGCTA [TGCATGCA_site543] | 7.44 ± 0.57 |
| TATATATATATATATTGTACACATACATGTAGTTTT [XGTACX_site4848] | 9.48 ± 0.54 |
| AAAGTAATATATAATACATGCGTAAATATTTATGTA [TGCATGCA_site254] | 7.71 ± 0.53 |
